# Measured values: PubChem BioAssay AID686970 (National Center for Advancing Translational Sciences (NCATS), 2013)
# Among all 360,000 compounds or so, about 6,000 (1.7%) were called active. This list was built around the results that the source calls inconclusive (neither active nor inactive); the mix of calls is not that of the screen. The call rests on the fitted dose curve; in most records, active means well fitted cell-killing curve with a large enough effect; inconclusive means small, poorly fitted or top-dose-only effect, or effect the other way; inactive means flat fitted curve, though single readings scatter. No potency is given beside an inconclusive call; the fits are too rough.
# Assay: qHTS for induction of synthetic lethality in tumor cells producing 2HG: qHTS for the HT-1080-NT fibrosarcoma cell line;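 further: NT is the 2HG producing partner of a matched IDH1 knockdown line; nearly all actives have a fitted effect of over 55% in size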
# Conditions: HT-1080-NT fibrosarcoma viability, CellTiter-Glo ATP luminescence, 48 h; series mostly up to 46.1 µM
# How it was run: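 Toxicity toward the 2HG-producing NT line was scored as %Activity, normalised to DMSO and no-cell wells, from CellTiter-Glo luminescence after 48 hours' treatment.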
# Potency means the concentration at half of the fitted maximal effect; tags describe the fitted curve by direction and shape.
row,Compound,Potency
1,COc1cc(C(O)c2nc(-c3cccc(C(=O)O)c3)cs2)ccc1F (stereo unspecified),"inconclusive [rising, single point]"
2,C=CCOC(=O)C1=C(C)NC(=S)NC1/C=C/c1ccccc1 (stereo unspecified),active: 12.6 µM
3,Cc1oc2c(c1C(=O)NCc1cccnc1)C(=O)c1ccccc1C2=O,active: 4.11 µM
4,CC1C=CC=CC=CC=CC=CC=CC=CC(OC2OC(C)C(O)C(N)C2O)CC2OC(O)(CC(O)CC(O)C(O)CCC(O)CC(O)CC(=O)OC(C)C(C)C1O)CC(O)C2C(=O)O (stereo unspecified),active: 4.61 µM
5,COCCCNc1nc2ccccc2nc1NS(=O)(=O)c1ccccc1,inactive
6,COc1cccc(OC)c1C(=O)NC(=S)Nc1ccc2c(c1)OCCO2,inactive
7,Cc1cc(C)c(S(=O)(=O)N2CCN(C(=O)c3c(C)nn(-c4ccccc4)c3Cl)CC2)c(C)c1,inactive
8,CC(=O)N1CCN(CC(O)COc2ccc(S(=O)(=O)N3CCOCC3)cc2)CC1 (stereo unspecified),inactive
9,COc1cccc(C2NC(=S)NC(C)=C2C(=O)c2ccccc2)c1OC (stereo unspecified),active: 2.31 µM
10,Cc1ccc(Sc2cc(C(=O)NCCN(C)C)c3ccccc3n2)cc1,"inconclusive [cytotoxic, single point]"
11,CCOC(=O)C1CCN(C(=O)c2cc3c(C)cc(C)cc3[nH]2)CC1,"inconclusive [rising, single point]"
12,CCC1CSC(Nc2ccc(C(=O)/C=C/c3cccc(C)c3)cc2)=N1 (stereo unspecified),"inconclusive [cytotoxic, single point]"
13,COc1ccc(NC(=O)Nc2nnc(Cc3ccccc3)s2)cc1,"inconclusive [cytotoxic, single point]"
14,COc1cccc(C(C)(O)c2nc(-c3ccc(Cl)cc3)cs2)c1 (stereo unspecified),"inconclusive [cytotoxic, single point]"
15,COc1ccc(-c2cnc3c(NC(C)=O)cc(-c4ccccc4CN(C)C)cn23)cc1OC,"inconclusive [cytotoxic, partial curve]"
16,CCN(CC)CCN1C(=O)C(O)=C(C(C)=O)C1c1ccccc1[N+](=O)[O-] (stereo unspecified),"inconclusive [cytotoxic, partial curve]"
17,CC(C)(C)CC(C)(C)NC(=S)Nc1ccc2nc(-c3ccccn3)c(-c3ccccn3)nc2c1,"inconclusive [cytotoxic, single point]"
18,Cc1ccc(C2c3c(-c4ccccc4O)n[nH]c3C(=O)N2Cc2ccncc2)cc1 (stereo unspecified),"inconclusive [cytotoxic, single point]"
19,NC(CCc1ccccc1)c1csc(Nc2nncc3ccccc23)n1 (stereo unspecified),"inconclusive [cytotoxic, single point]"
20,O=C(CCl)Nc1ccc(N=Nc2ccccc2)cc1,"inconclusive [cytotoxic, single point]"
21,CCOc1[nH]n(-c2ccc(Cl)cc2)c(=O)c1C=Nc1ccc(O)cc1,"inconclusive [cytotoxic, single point]"
22,COc1ccc(/C=N/NC(=O)c2ccccc2)cc1OS(=O)(=O)c1ccccc1,"inconclusive [cytotoxic, partial curve]"
23,COCCNC(=O)c1cc(C(=O)CC(C)C)c[nH]1,inactive
24,O=C(NNc1ccc(C2CCCCC2)cc1)C(O)(c1ccccc1)c1cccs1 (stereo unspecified),"inconclusive [cytotoxic, single point]"

row,Compound,Potency
1,Cc1cccc(C)c1NC(=O)CNC(=O)c1ccc2c(c1)NC(=O)CS2,inactive
2,CC(=C/C(=O)O)/C=C/c1cccs1,"inconclusive [rising, partial curve, poor fit]"
3,O=C1NC(=O)C2(CCCc3c([N+](=O)[O-])cccc32)N1 (stereo unspecified),inactive
4,COC(=O)c1[nH]c2ccc(C)cc2c1NC(=O)C(C)N1CCN(C2CCCCC2)CC1 (stereo unspecified),"inconclusive [cytotoxic, single point]"
5,O=C(Nc1ccccc1)c1ccc(NC(=O)C2CC2)cc1,inactive
6,Cc1nc(N(C)Cc2ccccc2)c2nnn(Cc3ccccc3)c2n1,inactive
7,Nc1nc(Nc2ccccc2F)nc(N2CCCC2)c1[N+](=O)[O-],"inconclusive [cytotoxic, single point]"
8,CCOc1ccc2nc(NC(=O)c3ccccn3)sc2c1,"inconclusive [cytotoxic, partial curve]"
9,CCOC(=O)CCN1C(=O)c2ccccc2Sc2ncccc21,inactive
10,Nc1c(C(=O)NCc2ccccc2)sc2nc(N3CCOCC3)c3c(c12)CCCC3,inactive
11,Fc1cccc(CSc2ncnc3c2ncn3C2CCCCO2)c1 (stereo unspecified),inactive
12,CC(=O)N1CCOc2ccc(S(=O)(=O)N3CCC(C(=O)NCc4ccc(Cl)cc4)CC3)cc21,inactive
13,N#C/C(=C\c1ccc(Cl)cc1)c1nc2ncccc2[nH]1,"inconclusive [cytotoxic, single point]"
14,CCc1c(C)sc(NC(=O)CN2CCN(C(=O)c3ccco3)CC2)c1C(=O)OC,"inconclusive [cytotoxic, single point]"
15,COc1cc(C(O)c2nc(-c3ccccc3OC)cs2)ccc1F (stereo unspecified),"inconclusive [rising, single point]"
16,OC(COc1ccc2ccccc2c1Br)Cn1cnc(-c2ccccc2)c1 (stereo unspecified),"inconclusive [cytotoxic, single point]"
17,Clc1ccc(OCc2nc(-c3ccccn3)n[nH]2)cc1,"inconclusive [cytotoxic, single point]"
18,O=C(C1CCCO1)N1CCN(S(=O)(=O)c2ccccc2)CC1 (stereo unspecified),"inconclusive [cytotoxic, full curve, poor fit]"
19,CCOC(=O)c1sc(-c2ccccc2)cc1N,inactive
20,O=C(Oc1ccc(-c2nc(-c3ccccn3)no2)cc1)c1ccccc1,"inconclusive [cytotoxic, full curve]"
21,CC(C)C(=O)NC(c1cccs1)c1cc([N+](=O)[O-])c2cccnc2c1O (stereo unspecified),"inconclusive [cytotoxic, single point]"
22,CC(=O)N1CCc2cc(S(=O)(=O)N3c4ccccc4CC3C)ccc21 (stereo unspecified),"inconclusive [cytotoxic, single point]"
23,COc1ccc(C(=O)CCc2ccccc2)c(O)c1,"inconclusive [rising, single point]"
24,O=C(Nc1ccccc1)c1ccccc1NS(=O)(=O)c1ccc(Cl)s1,"inconclusive [cytotoxic, single point]"

row,Compound,Potency
1,Oc1c(Cl)cc(Cl)cc1/C=N/Nc1ncc(Br)cn1,"inconclusive [cytotoxic, partial curve]"
2,C[N+](C)(C)c1ccc(/C=N/Nc2nc(Cl)c(C#N)c(Cl)c2Cl)cc1,inactive
3,CCOc1cc(/C=C/c2cc(C(F)(F)F)[nH]c(=O)n2)ccc1O,"inconclusive [cytotoxic, single point]"
4,Cc1cccc2cc(C#N)c(SCCN3CCCCC3)nc12,"inconclusive [cytotoxic, single point]"
5,C/C(=N\Nc1cc(C(F)(F)F)ccc1Cl)c1ccncc1,"inconclusive [cytotoxic, single point]"
6,COC(=O)C1=NNC(C(=O)OC)C1c1ccccc1 (stereo unspecified),inactive
7,COc1cc([C@@H]2c3cc4c(cc3[C@@H](O)[C@H]3COC(=O)[C@H]23)OCO4)cc(OC)c1O[Si](C)(C)C(C)(C)C,"inconclusive [cytotoxic, single point]"
8,Cc1ccc(SCC(=O)NC(=O)c2ccccc2Br)c(C)c1,inactive
9,COc1ccc(CN(C(=O)c2ccco2)c2ccc(C)c(C)c2)cc1,"inconclusive [cytotoxic, partial curve]"
10,Cc1c(NC(=O)OC(C)C)sc(=S)n1C,inactive
11,CC1=CC(C)(C)NC(=S)N1c1ccccc1,active: 11.2 µM
12,Nc1nc2c(ncn2[C@@H]2O[C@H](CNS(=O)(=O)N3CCc4ccccc4C3)[C@@H](O)[C@H]2O)c(=O)[nH]1,"inconclusive [rising, single point]"
13,CCOC(=O)Cc1c(-c2cccc(Cl)c2)nc2c3ccccc3ccn12,"inconclusive [cytotoxic, single point]"
14,c1ccc(-n2nnnc2-c2cccc3ccccc23)cc1,active: 5.8 µM
15,Cc1cc(C)cc(-n2ncc3c2CCCC3NC(=O)c2ccccc2N2CCOCC2)c1 (stereo unspecified),"inconclusive [cytotoxic, single point]"
16,c1ccc(COc2cccc(-c3cc4nc(NCCc5ccncc5)ccn4n3)c2)cc1,active: 18.4 µM
17,Fc1ccc(-n2cc(CNCCc3cccnc3)c(-c3ccccc3Cl)n2)cc1,active: 20.6 µM
18,COc1cc(CN2CCCC(C(=O)c3ccc(C(C)(C)C)cc3)C2)cc(OC)c1O (stereo unspecified),"inconclusive [cytotoxic, partial curve]"
19,O=C(Nc1ccc2oc(-c3ccccc3)nc2c1)c1ccc2c(c1)OCCO2,"inconclusive [cytotoxic, single point]"
20,COc1ccc(Cn2c(C)nc3c(c2=O)c2nc4ccccc4nc2n3Cc2ccco2)cc1,"inconclusive [cytotoxic, full curve]"
21,COc1ccc(N=C2SCC(c3ccc([N+](=O)[O-])cc3)=NN2CCO)cc1,"inconclusive [cytotoxic, partial curve]"
22,Cc1cccc(Cl)c1NC(=O)N1CCCN(c2nc3ccc(Cl)cc3s2)CC1,"inconclusive [cytotoxic, single point]"
23,COC(=O)[C@]1(C)N[C@H](c2ccc(-c3cccc(Cl)c3)cc2)[C@@H]2C(=O)N(C)C(=O)[C@@H]21,inactive
